Measurements taken from patent publication US9556117B2, “Indole carboxamide derivatives as P2X7 receptor antagonists” (ACTELION PHARMACEUTICALS LTD, priority 2012, dated 2017).

Biological target: human recombinant P2X7 receptor (Homo sapiens (Human), UniProt Q99572)
Assay: YO-PRO1 assay, P2X7 receptor antagonistic activity
Settings: HEK-293 cells expressing human recombinant P2X7 receptor; YO-PRO-1 fluorescence; ATP 250 μM for 90 minutes

Chain of UniProt Q99572 (Q99572 whole entry): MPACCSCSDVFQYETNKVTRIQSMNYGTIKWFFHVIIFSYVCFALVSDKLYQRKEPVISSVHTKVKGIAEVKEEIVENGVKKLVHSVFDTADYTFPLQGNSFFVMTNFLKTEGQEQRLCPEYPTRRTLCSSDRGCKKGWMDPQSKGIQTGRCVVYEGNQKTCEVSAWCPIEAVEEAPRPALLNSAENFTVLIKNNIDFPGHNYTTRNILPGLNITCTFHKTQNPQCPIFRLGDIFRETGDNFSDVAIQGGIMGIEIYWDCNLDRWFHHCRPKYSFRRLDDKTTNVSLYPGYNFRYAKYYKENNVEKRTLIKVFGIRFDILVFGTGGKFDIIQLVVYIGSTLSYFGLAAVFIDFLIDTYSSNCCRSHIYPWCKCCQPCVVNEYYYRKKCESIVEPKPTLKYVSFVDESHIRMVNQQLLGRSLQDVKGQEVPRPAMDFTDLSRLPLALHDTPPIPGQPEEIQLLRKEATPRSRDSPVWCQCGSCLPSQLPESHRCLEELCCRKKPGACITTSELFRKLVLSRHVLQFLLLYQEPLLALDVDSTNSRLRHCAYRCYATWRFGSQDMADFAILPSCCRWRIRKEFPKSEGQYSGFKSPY

Compound	IC50 [nM]
O=C(NCC1(c2cnc(C(F)(F)F)nc2)CCCCC1)c1ccc2[nH]ccc2c1Cl [Example 11, 4-Chloro-1H-indole-5-carboxylic acid [1-(2-trifluoromethyl-pyrimidin-5-yl)-cyclohexylmethyl]-amide]	4.1
O=C(NCC1(O)CCCCC1)c1ccc2[nH]cc(Cl)c2c1Cl [Example 28, 3,4-Dichloro-1H-indole-5-carboxylic acid (1-hydroxy-cyclohexylmethyl)-amide]	151
CCc1cc(C(=O)NCC2(O)CCC(F)(F)CC2)c(Cl)c2cc[nH]c12 [Example 73, 4-Chloro-7-ethyl-1H-indole-5-carboxylic acid (4,4-difluoro-1-hydroxy-cyclohexylmethyl)-amide]	4.2
Cc1ncc(C2(CNC(=O)c3ccc4[nH]ccc4c3Cl)CCC(F)(F)CC2)cn1 [Example 60, 4-Chloro-1H-indole-5-carboxylic acid [4,4-difluoro-1-(2-methyl-pyrimidin-5-yl)-cyclohexylmethyl]-amide]	6.3
Cn1ccc2c(Cl)c(C(=O)NCC3(O)CCCCC3)ccc21 [Example 6, 4-Chloro-1-methyl-1H-indole-5-carboxylic acid (1-hydroxy-cyclohexylmethyl)-amide]	211
Cc1cc(C(=O)NCC2(O)CCCCCC2)c(Cl)c2cc[nH]c12 [Example 25, 4-Chloro-7-methyl-1H-indole-5-carboxylic acid (1-hydroxy-cycloheptylmethyl)-amide]	2.9
O=C(N[C@H](CO)C1CCC(F)(F)CC1)c1ccc2[nH]ccc2c1Cl [Example 5, 4-Chloro-1H-indole-5-carboxylic acid [(S)-1-(4,4-difluoro-cyclohexyl)-2-hydroxy-ethyl]-amide]	77
C[C@@H](NC(=O)c1ccc2[nH]ccc2c1Cl)C1CCCCC1 [Example 45, 4-Chloro-1H-indole-5-carboxylic acid ((R)-1-cyclohexyl-ethyl)-amide]	81
COCCCc1cc(C(=O)NCC2(O)CCC(F)(F)CC2)c(Cl)c2cc[nH]c12 [Example 55, 4-Chloro-7-(3-methoxy-propyl)-1H-indole-5-carboxylic acid (4,4-difluoro-1-hydroxy-cyclohexylmethyl)-amide]	6.7
O=C(NCC1(c2ccc(Cl)nc2)CCCCC1)c1ccc2[nH]ccc2c1Cl [Example 12, 4-Chloro-1H-indole-5-carboxylic acid [1-(6-chloro-pyridin-3-yl)-cyclohexylmethyl]-amide]	3.2
CCCc1cc(C(=O)NCC2(O)CCCCC2)c(Cl)c2cc[nH]c12 [Example 82, 4-Chloro-7-propyl-1H-indole-5-carboxylic acid (1-hydroxy-cyclohexylmethyl)-amide]	3.8
Cc1cc(C(=O)NCC2(O)CCCCC2)c(Cl)c2cc[nH]c12 [Example 20, 4-Chloro-7-methyl-1H-indole-5-carboxylic acid (1-hydroxy-cyclohexylmethyl)-amide]	6.1
O=C(NCC1(O)CCCCC1)c1cc(OCCO)c2[nH]ccc2c1Cl [Example 86, 4-Chloro-7-(2-hydroxy-ethoxy)-1H-indole-5-carboxylic acid (1-hydroxy-cyclohexylmethyl)-amide]	6.7
CCCc1cc(C(=O)NCC2(O)CCC(F)(F)CC2)c(Cl)c2cc[nH]c12 [Example 83, 4-Chloro-7-propyl-1H-indole-5-carboxylic acid (4,4-difluoro-1-hydroxy-cyclohexylmethyl)-amide]	3.3
O=C(NCC1(O)CCC(F)(F)CC1)c1c(Cl)cc2[nH]ccc2c1Cl [Example 38, 4,6-Dichloro-1H-indole-5-carboxylic acid (4,4-difluoro-1-hydroxy-cyclohexylmethyl)-amide]	1320
O=C(NCC1(c2ccc(Cl)cc2)CCCCC1)c1ccc2[nH]ccc2c1Cl [Example 15, 4-Chloro-1H-indole-5-carboxylic acid [1-(4-chloro-phenyl)-cyclohexylmethyl]-amide]	238
CC(C)(O)c1cc(C(=O)NCC2(O)CCC(F)(F)CC2)c(Cl)c2cc[nH]c12 [Example 68, 4-Chloro-7-(1-hydroxy-1-methyl-ethyl)-1H-indole-5-carboxylic acid (4,4-difluoro-1-hydroxy-cyclohexylmethyl)-amide]	7.2
O=C(NCC1(O)CCC(F)(F)CC1)c1cc(OCCO)c2[nH]ccc2c1Cl [Example 87, 4-Chloro-7-(2-hydroxy-ethoxy)-1H-indole-5-carboxylic acid (4,4-difluoro-1-hydroxy-cyclohexylmethyl)-amide]	7.3
O=C(NCC1(O)CCC(F)(F)CC1)c1cc(F)c2[nH]ccc2c1F [Example 91, 4,7-Difluoro-1H-indole-5-carboxylic acid (4,4-difluoro-1-hydroxy-cyclohexylmethyl)-amide]	701
O=C(NCC1(O)CCCCC1)c1cc(F)c2[nH]ccc2c1F [Example 90, 4,7-Difluoro-1H-indole-5-carboxylic acid (1-hydroxy-cyclohexylmethyl)-amide]	563
COC(=O)C1(CNC(=O)c2ccc3[nH]ccc3c2Cl)CCCCC1 [Example 30, 1-{[(4-Chloro-1H-indole-5-carbonyl)-amino]-methyl}-cyclohexanecarboxylic acid methyl ester]	221
Cc1c(C(=O)NCC2(O)CCC(F)(F)CC2)ccc2[nH]ccc12 [Example 64, 4-Methyl-1H-indole-5-carboxylic acid (4,4-difluoro-1-hydroxy-cyclohexylmethyl)-amide]	51
COC1(CNC(=O)c2ccc3[nH]ccc3c2Cl)CCCCC1 [Example 43, 4-Chloro-1H-indole-5-carboxylic acid (1-methoxy-cyclohexylmethyl)-amide]	218
COc1c(C(=O)NCC2(O)CCCCCC2)ccc2[nH]ccc12 [Example 27, 4-Methoxy-1H-indole-5-carboxylic acid (1-hydroxy-cycloheptylmethyl)-amide]	682
COc1cc(C(=O)NCC2(O)CCCCC2)c(F)c2cc[nH]c12 [Example 92, 4-Fluoro-7-methoxy-1H-indole-5-carboxylic acid (1-hydroxy-cyclohexylmethyl)-amide]	45
COc1cc(C(=O)NCC2(O)CCC(F)(F)CC2)c(C)c2cc[nH]c12 [Example 77, 7-Methoxy-4-methyl-1H-indole-5-carboxylic acid (4,4-difluoro-1-hydroxy-cyclohexylmethyl)-amide]	21
CC(=O)c1cc(C(=O)NCC2(O)CCC(F)(F)CC2)c(Cl)c2cc[nH]c12 [Example 66, 7-Acetyl-4-chloro-1H-indole-5-carboxylic acid (4,4-difluoro-1-hydroxy-cyclohexylmethyl)-amide]	24
COc1cc(C(=O)NCC2(O)CCCCC2)c(Cl)c2cc[nH]c12 [Example 76, 4-Chloro-7-methoxy-1H-indole-5-carboxylic acid (1-hydroxy-cyclohexylmethyl)-amide]	2.9
O=C(NCC1(O)CCCCC1)c1ccc2[nH]ccc2c1Cl [Example 2, 4-Chloro-1H-indole-5-carboxylic acid (1-hydroxy-cyclohexylmethyl)-amide]	35
CCOc1cc(C(=O)NCC2(O)CCC(F)(F)CC2)c(Cl)c2cc[nH]c12 [Example 81, 4-Chloro-7-ethoxy-1H-indole-5-carboxylic acid (4,4-difluoro-1-hydroxy-cyclohexylmethyl)-amide]	5.4
